Measured values as given in PMC4336329 (PLoS ONE, 2015).
Hit rate of the full screen: of about 310,000 compounds, about 2,200 (0.71%) showed an effect of 50% or more. The effect is printed as a negative number. The list shows a part of the results.

target: human ether-à-go-go-related gene (hERG) potassium channel (human, UniProt Q12809); assay: primary screen, population patch clamp on CHO cells stably expressing hERG
Sequence (Q12809 whole entry, looked up): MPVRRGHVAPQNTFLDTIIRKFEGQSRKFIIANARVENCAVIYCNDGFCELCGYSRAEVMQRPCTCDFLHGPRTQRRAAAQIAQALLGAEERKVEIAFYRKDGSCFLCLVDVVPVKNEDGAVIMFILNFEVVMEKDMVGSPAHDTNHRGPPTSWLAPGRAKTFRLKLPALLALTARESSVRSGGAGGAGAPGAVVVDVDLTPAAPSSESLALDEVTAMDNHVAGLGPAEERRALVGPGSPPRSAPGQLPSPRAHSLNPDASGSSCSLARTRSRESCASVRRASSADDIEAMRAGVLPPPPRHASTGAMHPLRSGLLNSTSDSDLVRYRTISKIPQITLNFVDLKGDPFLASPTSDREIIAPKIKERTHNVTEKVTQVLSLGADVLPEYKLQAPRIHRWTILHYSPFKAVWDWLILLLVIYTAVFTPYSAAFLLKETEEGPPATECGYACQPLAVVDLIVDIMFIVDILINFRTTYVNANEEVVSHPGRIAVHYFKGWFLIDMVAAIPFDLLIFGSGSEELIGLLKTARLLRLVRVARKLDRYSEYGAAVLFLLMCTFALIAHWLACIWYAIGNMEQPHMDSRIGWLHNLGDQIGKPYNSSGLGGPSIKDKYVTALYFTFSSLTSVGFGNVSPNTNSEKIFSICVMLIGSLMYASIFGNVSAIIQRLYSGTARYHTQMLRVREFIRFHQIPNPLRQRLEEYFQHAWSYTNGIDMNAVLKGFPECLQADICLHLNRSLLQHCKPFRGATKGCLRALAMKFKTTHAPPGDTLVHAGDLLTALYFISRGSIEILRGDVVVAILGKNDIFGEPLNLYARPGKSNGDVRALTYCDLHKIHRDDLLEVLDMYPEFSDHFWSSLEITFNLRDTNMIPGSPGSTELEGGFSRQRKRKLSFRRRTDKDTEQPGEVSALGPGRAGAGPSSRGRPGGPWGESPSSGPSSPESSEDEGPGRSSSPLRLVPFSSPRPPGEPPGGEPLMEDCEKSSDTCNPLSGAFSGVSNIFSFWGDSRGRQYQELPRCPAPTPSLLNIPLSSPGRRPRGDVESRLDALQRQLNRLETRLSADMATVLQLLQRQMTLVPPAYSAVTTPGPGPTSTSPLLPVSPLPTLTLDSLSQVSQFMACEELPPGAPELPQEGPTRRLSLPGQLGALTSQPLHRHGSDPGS

Row | SMILES | hERG current change (%, negative = inhibition) at 1uM [%]
1 | CCOC(=O)CCC(NC(=O)CCCCC(=O)NC(CCC(=O)OCC)C(=O)OCC)C(=O)OCC (stereo not shown) | 9.03
2 | CCOc1ccccc1N1CC(C(=O)Nc2ccc(S(=O)(=O)N3CCCCC3)cc2)CC1=O (stereo not shown) | 4.87
3 | COc1ccc(/C=N/NC(=O)C(C)Sc2ccccn2)cc1[N+](=O)[O-] (stereo not shown) | -2.07
4 | CSc1sc(C(=O)O)c2c1C(=O)CCC2 | 13
5 | Cc1csc(/N=C/c2ccc([N+](=O)[O-])cc2)n1 | 3.72
6 | COc1ccc(/C=C/CN2CCN(Cc3ccccc3)C(CCO)C2)cc1 (stereo not shown) | -28.9
7 | Cc1occc1C(=O)NNC(=S)NCc1ccccc1 | 2.29
8 | CCCCn1c(=O)[nH]c(=O)c2c1nc(-c1cccc(OC)c1)n2C | 17.8
9 | COc1ccc(NC(=O)CN(C)S(=O)(=O)c2ccc3[nH]c(=O)oc3c2)cc1 | 13.4
10 | O=C(NCCc1c[nH]c2ccccc12)c1cc(Cl)c2c(c1)OCO2 | 12.1
11 | CCCN1CCN(C(=S)Nc2ccc(S(N)(=O)=O)cc2)CC1 | 15.3
12 | COc1ccccc1OCCC(=O)OCC(=O)Nc1ccc(S(=O)(=O)N2CCOCC2)cc1 | -2.03
13 | COCCSc1nnc(-c2cccc(C#N)c2)n1C | 2.38
14 | Cc1ccc(N(Cc2ccccc2)C(=O)c2cccc(S(=O)(=O)N3CCN(C)CC3)c2)cc1 | -10.5
15 | Cc1ccc(NC(=O)CSc2ccc(-c3cccnc3)nn2)cc1Cl | 3.03
16 | CCOC(=O)C1CCN(C(=O)CCN2C(=O)C3C4C=CC(C4)C3C2=O)CC1 (stereo not shown) | 7.6
17 | Cc1ccc(O)c(C(=O)c2cnn(C(=O)Cc3csc(C)n3)c2)c1 | 13.4
18 | O=C(C1CCCCC1)N1CCCc2ccccc21 | 5.4
19 | Oc1[nH]c2ccccc2c1C=Nc1ccc2c(c1)OCO2 | 7.7
20 | Cc1ccnc(NC(=O)CCS(=O)(=O)c2ccccc2)c1 | 18.1
21 | C/C(=N/NC(=O)Cc1ccccc1)c1ccc(C)s1 | 11.5
22 | O=C(COC(=O)CN1C(=O)c2ccccc2C1=O)Nc1ccc(S(=O)(=O)N2CCCC2)cc1 | 4.89

Row | SMILES | hERG current change (%, negative = inhibition) at 1uM [%]
23 | O=C(CN1CCN(c2ccccn2)CC1)N1c2ccccc2Sc2ccc(C(F)(F)F)cc21 | -9.71
24 | Cc1[nH]n(-c2ccc([N+](=O)[O-])cc2)c(=O)c1C=NCCN1CCN(C(=O)c2ccccc2)CC1 | -77
25 | COC(=O)C1CCN(C(c2cc(OC)c(OC)c(OC)c2)c2sc3nc(C)nn3c2O)CC1 (stereo not shown) | 11.1
26 | Cc1ccc([N+](=O)[O-])cc1NC(=O)CNC1CCCCC1 | -0.383
27 | CS(=O)(=O)N1CCN(C(=O)c2ccccc2)C1 | 18.7
28 | CC(=O)O[C@]1(C(C)=O)CCC2C3C=C(C)C4=CC(=O)CC[C@]4(C)C3CC[C@@]21C (stereo partly shown) | 6.1
29 | Cc1ccc(-c2c(C(=O)N/N=C/c3cccs3)nnn2-c2nonc2N)cc1 | 22.2
30 | Cc1ccc(C)c(N2CCN(C(=O)C3CCCN(c4ncnc5c4nc4n5CCCCC4)C3)CC2)c1 (stereo not shown) | 13.3
31 | O=C1Nc2ccc(F)cc2C12Nc1ccccc1-c1nnc(SCc3ccccc3F)nc1O2 (stereo not shown) | 9.86
32 | CCCCOC(=O)Nc1ccccc1C(N)=O | 4.25
33 | O=[N+]([O-])c1ccccc1/C=C/CN1CCCC(CO)C1 (stereo not shown) | 8.86
34 | O=C(C1CCN(S(=O)(=O)c2cccc3cccnc23)CC1)N1CCN(c2ccccc2)CC1 | -1.86
35 | O=C(NCc1ccc(F)cc1)c1ccc2c(=O)n3c(nc2c1)CCCCC3 | -6.04
36 | Br.N=c1n(CC(=O)c2cccs2)c2ccccc2n1Cc1ccccc1 | -7.48
37 | O=C(CNC(=O)COc1ccccc1)NCCN1CCOCC1 | 5.89
38 | COc1ccc(Cc2nc3ccccc3[nH]2)cc1OC | 9.68
39 | CC(OC(=O)C1CCN(S(=O)(=O)c2ccc(Cl)cc2)CC1)C(=O)NC1CCCCC1C (stereo not shown) | 3.83
40 | COc1ccccc1CNC(=O)CCCn1nc(C)c2c(C)n(-c3ccc(C)cc3)nc2c1=O | 0.392
41 | COc1ccc(C(C)=O)cc1Cc1c(O)[nH]c(=S)[nH]c1=O | 6.22
42 | Cn1ncc(N2CCN(S(=O)(=O)c3ccc(Br)cc3)CC2)c(Cl)c1=O | -9.79
43 | COc1ccc(CC(=O)NNC(=O)CN(C)S(=O)(=O)c2ccc(Cl)cc2)cc1OC | 6.69
44 | CCN(CC(=O)Nc1ccc(C#N)c(Cl)c1)CC(=O)NC(C)(C)C | 3.53

Row | SMILES | hERG current change (%, negative = inhibition) at 1uM [%]
45 | CC(OC(=O)c1nn(C)c(=O)c2ccccc12)C(=O)NCc1ccc2c(c1)OCO2 (stereo not shown) | 5.72
46 | Cc1onc(-c2ccccc2)c1C(=O)n1cccn1 | 15.2
47 | CCOc1ccc2nc(NC(=O)C3CCN(c4cnccn4)CC3)sc2c1 | 3.28
48 | CCOC(=O)c1c(-c2ccccc2)oc2ccc(O)c(CN3CCOCC3)c12 | -9.83
49 | COc1ccccc1C(=O)Nc1nnc(-c2ccc(F)cc2)o1 | 7.76
50 | CCOC(=O)CNC(=O)CSc1nnc(-c2ccccc2)n1Cc1ccco1 | 10.1
51 | O=C(OCc1ccccc1)c1cnc(Cl)c(Cl)c1 | 1.87
52 | CC1CC(C)CN(C(=O)c2cccc(N3C(=O)c4ccccc4C3=O)c2)C1 (stereo not shown) | 8.8
53 | O=C(NC1=NCCS1)c1ccc(OCC2CCCO2)cc1 (stereo not shown) | 6.55
54 | CC(C)C(O)C1CCN(Cc2nc(-c3cccs3)no2)CC1 (stereo not shown) | -4.64
55 | CC1CCCCN1C(=O)C1CCN(S(=O)(=O)c2ccc(-n3cnnn3)cc2)CC1 (stereo not shown) | -15.5
56 | CC1CC(C(F)F)n2nc(C(=O)Nc3sc4c(c3C#N)CCC(C(C)(C)C)C4)nc2N1 (stereo not shown) | 13.1
57 | NC(=O)CC(NC(=O)c1ccccc1)c1ccc(N2CCC(Cc3ccccc3)CC2)c([N+](=O)[O-])c1 (stereo not shown) | 7.73
58 | N#Cc1ccc(OCc2cccc(S(=O)(=O)N3CCOCC3)c2)cc1 | -57.3
59 | Cn1cc(CNC(=O)C2CCCCC2)cn1 | -8.5
60 | Cc1ccc(CNC(=O)CSc2nnc(CNC(=O)c3ccccc3)o2)cc1 | 13.4
61 | O=C(CCc1nc2ccccc2[nH]c1=O)OCC(=O)N1CCc2ccccc21 | 8.03
62 | Cc1[nH]n(-c2ccc(Cl)cc2)c(=O)c1C=NC12CN3CN(CN(C3)C1)C2 | 10.9
63 | CC(=O)c1ccc(S(=O)(=O)N2CCN(C(=O)c3ccc(N)c([N+](=O)[O-])c3)CC2)cc1 | 3.67
64 | Cc1c(-c2ccccc2)n[nH]c1C(=O)N=Nc1c(O)[nH]c2ccccc12 | 2.33
65 | CC(NC(=O)NC1CCCCC1)C(c1cccs1)N1CCN(C)CC1 (stereo not shown) | 6.52
66 | CCOC(=O)c1c(NC2OC(=O)c3c2ccc(OC)c3OC)sc(C(=O)OC(C)(C)C)c1C (stereo not shown) | 5.82

Row | SMILES | hERG current change (%, negative = inhibition) at 1uM [%]
67 | COc1ccc(N2CCN(C(=O)COc3ccc4c(C)cc(=O)oc4c3)CC2)cc1 | 9.09
68 | CC(C)c1ccc2c(c1)C(c1cccs1)=NNC(c1ccncc1)=N2 | 12.3
69 | CCN(CC)S(=O)(=O)c1ccc(N2CCN(C)CC2)c(NC(=O)COc2ccc(F)cc2Cl)c1 | -2.91
70 | CCN(CC)CCC/C(=N\O)C(O)(c1ccccc1)c1ccccc1 | 10.9
71 | O=C(CSc1ccc(Cl)cc1)Nc1nnc(-c2cccc([N+](=O)[O-])c2)s1 | 13.3
72 | CCn1c(SCc2nc3ccccc3[nH]2)nnc1-c1ccccc1OC | -0.918
73 | COc1cc2[nH]c3c(OC)ncnc3c2cc1OC | 5.47
74 | CCOC(Cn1ccc(=O)[nH]c1=O)OCC | 7.3
75 | CCN(C(=O)c1ccnn1C)c1ccccc1 | 2.86
76 | N#Cc1ccccc1OCCCN1CCC(Cc2ccccc2)CC1.O=C(O)C(=O)O | -83
77 | Cc1ccc(OCC(=O)NCCN2CCOCC2)cc1C | 7.39
78 | CC(=O)c1ccc(S(=O)(=O)N2CCC3(CC2)OCCO3)cc1 | 11.4
79 | CCS(=O)(=O)Nc1cc(C(=O)OC)ccc1C(=O)OC | 7.43
80 | CCOC(=O)c1ccccc1NC(=O)CSc1ncc(C(=O)OCC)c(N)n1 | 14.9
81 | Cc1cccc(C)c1C(=NCCCN(C)C)c1ccccc1.Cl | 6.28
82 | O=C(Cn1ncc2c3ccccc3n(Cc3ccccc3)c2c1=O)NCCCN1CCCC1 | -29.5
83 | NS(=O)(=O)c1cc(C(=O)NCCc2ccccn2)ccc1Cl | -5.96
84 | COc1ccc(OCC(=O)OCC(=O)Nc2ccc3[nH]c(=O)[nH]c3c2)cc1 | 7.93
85 | CCCCC(=O)NC1=C(C(=O)OC)SCC1 | 17.4
86 | Cc1ccc(C(=O)NNC(=S)NC(=O)c2ccc(Cl)cc2Cl)cc1 | 4.12
87 | O=C(NCc1ccccn1)c1cccc(S(=O)(=O)NCc2ccccc2)c1 | 5.15
88 | COc1cccc(SCc2noc(C(=O)NCCCN3CCOCC3)c2C(=O)NCCCN2CCOCC2)c1 | 7.12
